From the supplement of paper PMC8728848
The list shows a part of the results.

Legend:
Assay in all cases: glycan array binding signal (z-score within array); higher = stronger binding
Conditions in all cases: glycan notation: IUPAC condensed, linker removed
Fuc(a1-3)GlcNAc = molecular target: Fuc(a1-3)GlcNAc
How it was run: (§1)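 From the Consortium for Functional Glycomics database, 3228 arrays were curated, keeping only those whose protein sequence was available. Binding is given as a within-array Z-score averaged across arrays sharing a protein sequence and across linkers. Negative Z-scores can be read as non-binding.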

[1] = molecular target: Fuc(a1-3)[Gal(b1-4)]Glc6S
How it was run: as §1

[2] = molecular target: Fuc(a1-3)[Gal(b1-4)]GlcNAc
How it was run: as §1

[3] = molecular target: Fuc(a1-3)[Gal(b1-4)]GlcNAc(b1-2)Man
How it was run: as §1

[4] = molecular target: Fuc(a1-3)[Gal(b1-4)]GlcNAc(b1-2)Man(a1-3)[Fuc(a1-3)[Gal(b1-4)]GlcNAc(b1-2)Man(a1-6)]Man(b1-4)GlcNAc(b1-4)GlcNAc
How it was run: as §1

[5] = molecular target: Fuc(a1-3)[Gal(b1-4)]GlcNAc(b1-2)Man(a1-3)[Fuc(a1-3)[Gal(b1-4)]GlcNAc(b1-2)Man(a1-6)]Man(b1-4)GlcNAc(b1-4)[Fuc(a1-6)]GlcNAc
How it was run: as §1

[6] = molecular target: Fuc(a1-3)[Gal(b1-4)]GlcNAc(b1-3)Gal(b1-3)[Fuc(a1-4)]GlcNAc
How it was run: as §1

[7] = molecular target: Fuc(a1-3)[Gal(b1-4)]GlcNAc(b1-3)Gal(b1-4)[Fuc(a1-3)]GlcNAc
How it was run: as §1

[8] = molecular target: Fuc(a1-3)[Gal(b1-4)]GlcNAc(b1-3)Gal(b1-4)[Fuc(a1-3)]GlcNAc(b1-3)Gal(b1-4)[Fuc(a1-3)]GlcNAc
How it was run: as §1

[9] = molecular target: Fuc(a1-3)[Gal(b1-4)]GlcNAc(b1-3)GalNAc
How it was run: as §1

[10] = molecular target: Fuc(a1-3)[Gal(b1-4)]GlcNAc(b1-6)GalNAc
How it was run: as §1

[11] = molecular target: Fuc(a1-3)[Gal(b1-4)]GlcNAc(b1-6)[Gal(b1-3)GlcNAc(b1-3)]Gal(b1-4)Glc
How it was run: as §1

[12] = molecular target: Fuc(a1-3)[Gal(b1-4)]GlcNAc6S
How it was run: as §1

[13] = molecular target: Fuc(a1-3)[Gal3S(b1-4)]Glc
How it was run: as §1

[14] = molecular target: Fuc(a1-3)[Gal3S(b1-4)]GlcNAc
How it was run: as §1

[15] = molecular target: Fuc(a1-3)[Gal3S(b1-4)]GlcNAc6S
How it was run: as §1

[16] = molecular target: Fuc(a1-3)[GalNAc(b1-4)]GlcNAc
How it was run: as §1

[17] = molecular target: Fuc(a1-3)[GalNAc(b1-4)]GlcNAc6S
How it was run: as §1

Fuc(a1-4)GlcNAc = molecular target: Fuc(a1-4)GlcNAc
How it was run: as §1

Fuc(b1-3)GlcNAc = molecular target: Fuc(b1-3)GlcNAc
How it was run: as §1

Gal(a1-2)Gal = molecular target: Gal(a1-2)Gal
How it was run: as §1

Gal(a1-3)Gal = molecular target: Gal(a1-3)Gal
How it was run: as §1

Gal(a1-3)Gal(b1-3)GlcNAc = molecular target: Gal(a1-3)Gal(b1-3)GlcNAc
How it was run: as §1

[18] = molecular target: Gal(a1-3)Gal(b1-3)GlcNAc(b1-2)Man
How it was run: as §1

[19] = molecular target: Gal(a1-3)Gal(b1-3)GlcNAc(b1-2)Man(a1-3)[Gal(a1-3)Gal(b1-3)GlcNAc(b1-2)Man(a1-6)]Man(b1-4)GlcNAc(b1-4)GlcNAc
How it was run: as §1

[20] = molecular target: Gal(a1-3)Gal(b1-3)GlcNAc(b1-3)GalNAc
How it was run: as §1

[21] = molecular target: Gal(a1-3)Gal(b1-3)GlcNAc(b1-6)GalNAc
How it was run: as §1

[22] = molecular target: Gal(a1-3)Gal(b1-3)[Fuc(a1-4)]GlcNAc(b1-2)Man(a1-3)[Gal(a1-3)Gal(b1-3)[Fuc(a1-4)]GlcNAc(b1-2)Man(a1-6)]Man(b1-4)GlcNAc(b1-4)GlcNAc
How it was run: as §1

Gal(a1-3)Gal(b1-4)Glc = molecular target: Gal(a1-3)Gal(b1-4)Glc
How it was run: as §1

Gal(a1-3)Gal(b1-4)GlcNAc = molecular target: Gal(a1-3)Gal(b1-4)GlcNAc
How it was run: as §1

[23] = molecular target: Gal(a1-3)Gal(b1-4)GlcNAc(b1-2)Man
How it was run: as §1

[24] = molecular target: Gal(a1-3)Gal(b1-4)GlcNAc(b1-2)Man(a1-3)[Gal(a1-3)Gal(b1-4)GlcNAc(b1-2)Man(a1-6)]Man(b1-4)GlcNAc(b1-4)GlcNAc
How it was run: as §1

[25] = molecular target: Gal(a1-3)Gal(b1-4)GlcNAc(b1-3)GalNAc
How it was run: as §1

[26] = molecular target: Gal(a1-3)Gal(b1-4)GlcNAc(b1-6)GalNAc
How it was run: as §1

[27] = molecular target: Gal(a1-3)Gal(b1-4)[Fuc(a1-3)]GlcNAc
How it was run: as §1

[28] = molecular target: Gal(a1-3)Gal(b1-4)[Fuc(a1-3)]GlcNAc(b1-2)Man(a1-3)[Gal(a1-3)Gal(b1-4)[Fuc(a1-3)]GlcNAc(b1-2)Man(a1-6)]Man(b1-4)GlcNAc(b1-4)GlcNAc
How it was run: as §1

Gal(a1-3)GalNAc = molecular target: Gal(a1-3)GalNAc
How it was run: as §1

B1: PX9961C-bth-497-22-497 (Bacteroides thetaiotaomicron) (protein)
chain: DWLDLNTTSSVETGQAIVTLDDAQIALNGIYRLASGHSYYGDNYWYYGDCRAADVQARITKGDGKRVSPYYEYNVLASDNLNIVLPWNTVYKVIRQTNNLIQKIESGSIQSSDTKELNRIKSEALVMRGLSLFNLTRLFGMPYTNDKGASLGVPIETSPSDPTHKPSRSTVAQCYEQVVSDMSNALSGLRQETSNGYINYWAAQALLSRVYLNMGEYQKAYDAATDVIKNNGGRYQLYSYEEYPNVWGQDFQSESLFELYITLSEPSGGTGGEGAPMVYANEATVDWNNLILSEDFLNLLNEDPKDVRHCLTKESVIENNTGLPAAAMHEKVYLAKFPGKTGDDPKTNNICIIRLSEVYLNAAEAGLKKGTDIEEAQGYLNDIISRRTTDTSQQVSTETFTLDRILKERRKELVGEGEVFYDYLRNGLAIERKGSWHLETLKASNAQKIEATDLRIALPIPQSEIDANPNIQQNPR
glycan array binding signal (z-score) (Fuc(a1-3)GlcNAc): -0.037 | glycan array binding signal (z-score) [1]: -0.096 | glycan array binding signal (z-score) [2]: 0.076 | glycan array binding signal (z-score) [3]: 1.56 | glycan array binding signal (z-score) [4]: -0.712 | glycan array binding signal (z-score) [5]: -0.096 | glycan array binding signal (z-score) [6]: -0.48 | glycan array binding signal (z-score) [7]: -0.305 | glycan array binding signal (z-score) [8]: 0.176 | glycan array binding signal (z-score) [9]: 0.476 | glycan array binding signal (z-score) [10]: 0.511 | glycan array binding signal (z-score) [11]: -0.071 | glycan array binding signal (z-score) [12]: 0.353 | glycan array binding signal (z-score) [13]: -0.401 | glycan array binding signal (z-score) [14]: -0.675 | glycan array binding signal (z-score) [15]: 0.086 | glycan array binding signal (z-score) [16]: 0.598 | glycan array binding signal (z-score) [17]: 0.685 | glycan array binding signal (z-score) (Fuc(a1-4)GlcNAc): -0.268 | glycan array binding signal (z-score) (Fuc(b1-3)GlcNAc): -0.379 | glycan array binding signal (z-score) (Gal(a1-2)Gal): -0.153 | glycan array binding signal (z-score) (Gal(a1-3)Gal): 0.007 | glycan array binding signal (z-score) (Gal(a1-3)Gal(b1-3)GlcNAc): -0.49 | glycan array binding signal (z-score) [18]: -0.203 | glycan array binding signal (z-score) [19]: -0.229 | glycan array binding signal (z-score) [20]: -0.489 | glycan array binding signal (z-score) [21]: 0.804 | glycan array binding signal (z-score) [22]: -0.078 | glycan array binding signal (z-score) (Gal(a1-3)Gal(b1-4)Glc): 0.346 | glycan array binding signal (z-score) (Gal(a1-3)Gal(b1-4)GlcNAc): -0.186 | glycan array binding signal (z-score) [23]: 0.338 | glycan array binding signal (z-score) [24]: 0.542 | glycan array binding signal (z-score) [25]: -0.646 | glycan array binding signal (z-score) [26]: -0.139 | glycan array binding signal (z-score) [27]: -0.325 | glycan array binding signal (z-score) [28]: 0.117 | glycan array binding signal (z-score) (Gal(a1-3)GalNAc): 0.054
